The source gives no read counts; variants with many changes may rest on few reads.
B1: CPEB3 Ribozyme (parent)
chain: UAACAGGGGGCCACAGCAGAAGCGUUCACGUCGCAGCCCCUGUCAGAUUCUGGUGAAUCUGCGAAUUCUGCUGUAUAUCUC

Variants of: B1
Assay: self-cleavage, relative activity (ratio to wild type); higher = more cleavage; in vitro, sequencing
Summary of the method: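 CPEB3 self-cleaving ribozyme mutant libraries were made by rounds of error-prone PCR, barcoded, and transcribed in vitro with T7 RNA polymerase for 5 hours at 37°C. Cleavage occurred during transcription and a 15 min DNase I step before EDTA stop. RNAs were reverse transcribed with template switching and Illumina-sequenced, with DNA sequencing mapping barcodes to variants. Relative activity is the variant's cleaved/total read fraction divided by wild type's (minimum 5 reads), averaged across three batches.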

Variant	self-cleavage
UAACAGGGGGCCACAGCAGAAGCGUUCAUGUCGCUGCCCCUGUCAGAUUCUGGUGAAUCUGCGAACUCUGCUGUAUAUCAC [C29U A35U U66C U80A]	0.06
UAACAGGGGGCCACAGCAGAAGCGUUCAGGUCGCAGCACCUGUCAGAUUCUGGUGAAUCUGCGUAUUCUGCUGUAUAUCUC [C29G C38A A64U]	0.21
UAACAGGGGGCCACAGCAGAAGCGUUCAGGUCGCAGCCCCUGUCAGAUUCUGGUGAACCUGCGAAUUCUGCCGUACAUCUC [C29G U58C U72C U76C]	0.09
UAACAGGGGGCCACAGCAGAAGCGUUCAGGUCGCAGCCCCUGUCAGAUCCUGGAGAAUCUGCGAAUCCUGCUAUAUAUCUC [C29G U49C U54A U67C G73A]	0.06
UAACAGGGGGCCACAGCAGAAGCGUUCAGGUCGCAGCCCCCGUCAGAUUCAGGUGAAUCUGCGAAUUCUGCUGUAUAUCUG [C29G U41C U51A C81G]	0.12
UAACAGGGGGCCACAGCAGAAGCGUUCAGGUCGCAGCCCCUGUCAGAUUCUGGUGAUUCAGCGAAUUCUGCUGUAUAUCUC [C29G A57U U60A]	0.04
UAACAGGGGGCCACAGCAGAAGCGUUCAUGUCGCUGGCCCGGUCAGAUUCAGGUGAAUCUGCGAAUUCUGCUGUAUAACUC [C29U A35U C37G U41G U51A U78A]	0.09
UAACAGGGGGCCACAGCAGAAGCGUUCAAGUCGCAGCCCCUGACAGGUUCUGGUGAAUCCGCGAAUUCUGCUGUACAUCCC [C29A U43A A47G U60C U76C U80C]	0.07
UAACAGGGGGCCACAGCAGAAGCGUUCAAGUCGCAGCCCCAGUCAGAUUCUGGUGAGUCUGCGAAUUCUGCUGUAUAUCUC [C29A U41A A57G]	0.23
UAACAGGGGGCCACAGCAGAAGCGUUCAUGUCGCGGCCCCUGUCAGAUUCUGGUGAUUCUGCGAAUUCUGCUGUAUAUCUC [C29U A35G A57U]	0.35
UAACAGGGGGCCACAGCAGAAGCGUUCAUGUCGCGGCCCCUGUCGGAUUCUGGUGAAUCUGCGAAUUCUGCGGUAUAUCUC [C29U A35G A45G U72G]	0.97
UAACAGGGGGCCACAGCAGAAGCGUUCAUGUCGCGGCCCCUGUCAGAUUCUGGCGAGUCUGCGAAUUCUGCUGUAUAUCUC [C29U A35G U54C A57G]	1.1
UAACAGGGGGCCACAGCAGAAGCGUUCAAGUCGCAGCCCCUGUCAGACUCUGGUGAAUCUGCGAGUUCUGCUGUAUAUCUC [C29A U48C A65G]	0.14
UAACAGGGGGCCACAGCAGAAGCGUUCAGGUCGCAGCCCCUGUCAGUUCCUGGUGAAUCUGCGUAUUCUGCUGUAUACCUC [C29G A47U U49C A64U U78C]	0.09
UAACAGGGGGCCACAGCAGAAGCGUUCAAGUCGCAGCCCCUGUCAGAUUCUGGUGAAUCCGCGAAUUCUGCUGUAUAUCCC [C29A U60C U80C]	0.31
UAACAGGGGGCCACAGCAGAAGCGUUCAGGUCGCAGCCCCUGCCAGAUUCUGGUGAAUCAGCGAAUUCUGCGGUAUACCUC [C29G U43C U60A U72G U78C]	0.07
UAACAGGGGGCCACAGCAGAAGCGUUCAGGUCGCAGCCCCUGUCAGAUUCUGGCGAAUCUGCGAACUCUGCUGUAUAUCUC [C29G U54C U66C]	0.09

Variant	self-cleavage
UAACAGGGGGCCACAGCAGAAGCGUUCAUGUCGCGGCCCCUGUCAGAUUCUGGUGAAUCCGCGAAUUCUGCUGUAUAUCUC [C29U A35G U60C]	0.38
UAACAGGGGGCCACAGCAGAAGCGUUCAAGUCGCAGCCCCUGUCAGAUUCAGGUGAGUCUGCGGAUUCUGCUGUAUAUCUC [C29A U51A A57G A64G]	0.26
UAACAGGGGGCCACAGCAGAAGCGUUCAAGCCGCAGCCCCUGUCAGAUUCUGGUGAAACUGCGAAUUCUGCUGUAUAACUC [C29A U31C U58A U78A]	0.17
UAACAGGGGGCCACAGCAGAAGCGUUCAGGUCGCAGCCCCUGUCAGAUUCUAGUGGAUCUGCGAACUCUGCUGUAUAUCUC [C29G G52A A56G U66C]	0.14
UAACAGGGGGCCACAGCAGAAGCGUUCAAGUCGCAGCCCCUGUCAGAUUCAGGUGAAUCUGCGAAUCCUGCUGUAUAUCCC [C29A U51A U67C U80C]	0.14
UAACAGGGGGCCACAGCAGAAGCGUUCAUGUCGCAGCCCCUGUCAGUUUCUGGUGAGUCUGCGAAUCCUGCUGUGUAUCUC [C29U A47U A57G U67C A75G]	0.1
UAACAGGGGGCCACAGCAGAAGCGUUCAGGUCGCAGCCCCUGUCAGAUUCUGGUGAAUCUGCGAGUUCUGCAGUAUAUCUC [C29G A65G U72A]	0.17
UAACAGGGGGCCACAGCAGAAGCGUUCAGGUCGCAGCCUCUGUCAGAUUCCGGUGAAACUGCGAAUUCUGCUGCAUAUCUC [C29G C39U U51C U58A U74C]	0.06
UAACAGGGGGCCACAGCAGAAGCGUUCAGGUCGCAGCCCCUGUCAGAUUCUGGUGAGUCUGCGAACUCUGCAGUAUAUCAC [C29G A57G U66C U72A U80A]	0.07
UAACAGGGGGCCACAGCAGAAGCGUUCAAGUCGCAGCCCCUGUCAGAUCCUGGUGAAUCUGCGAAUUCUGCUGUAUAUCCC [C29A U49C U80C]	0.12
UAACAGGGGGCCACAGCAGAAGCGUUCAUGUCGCGGCCCCUGUCAGAUUCUGGUGAAUCCGCGAGUUCUGCUGUAUAUCUC [C29U A35G U60C A65G]	0.16
UAACAGGGGGCCACAGCAGAAGCGUUCAUGUCGCGGCCCCUGUCAGAUUCUGGUGAAUCUGCGAAUUCUCCUGUAUAUCAC [C29U A35G G70C U80A]	0.2
UAACAGGGGGCCACAGCAGAAGCGUUCAGGUCGCGGCCCCUGUCAGAUUCUGGUGAAUCUGCGAAUUCUGCAGUAUAUCUC [C29G A35G U72A]	0.27
UAACAGGGGGCCACAGCAGAAGCGUUCAAGUCGCAGCCCCUGUCAGAUUCAGGUGAAUCUGCGAAUUCAGCUGUAUAUCUC [C29A U51A U69A]	0.09
UAACAGGGGGCCACAGCAGAAGCGUUCAGGUCGCAGCCCCUGUCAGUUUCUGGUGAAUCUGCGAAUUCUGCUGUAGAUCUC [C29G A47U U76G]	0.43
UAACAGGGGGCCACAGCAGAAGCGUUCAAGUCGCAGCCCCUGCCAGAUUCUGGAGAAUCUGCGAAUUCUGCUGUAUAUCUC [C29A U43C U54A]	0.42
UAACAGGGGGCCACAGCAGAAGCGUUCAAGUCGCAGCCCCAGUCAGAUUCUGGUGAAUCAGCGAAUUCUGCUGUAUAUCUC [C29A U41A U60A]	0.27
